# According to the supplement of paper PMC12645437, “Orthogonal IMiD-Degron Pairs Induce Selective Protein Degradation in Cells” (ACS Chemical Biology, 2025):
# The list shows a part of the results.
# Target: no compound (DMSO)
# Test: log2 fold change of degron read counts, EGFP-low vs EGFP+ sorted cells; higher = lower degron-EGFP level without compound (poor expression or instability)
# Conditions: compound: DMSO control; 18 h
# 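Also: jurkat cells carrying a lentiviral library of mutant zinc finger degrons fused to EGFP plus mCherry, mCherry+ cells FACS sorted, degron abundance counted by next-generation sequencing.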
row,Sequence,log2 fold change of degron read counts
1,LDCNQCGFICTQKGNLLRHIKL,1.6
2,FKCPVCGADFTQKGNLLRHIKL,-0.275
3,FWCNICGANFTQKGNLLRHIKL,-0.00785
4,FWCPVCGARFTQKGNLLRHIKL,0.509
5,FICNICGAIFTQKGNLLRHIKL,0.244
6,LMCEICGFGCTQKGNLLRHIKL,0.236
7,FMCNQCGAHFTQKGNLLRHIKL,-0.689
8,FVCPICGRRFTQKGNLLRHIKL,-0.564
9,LICPICGFICTQKGNLLRHIKL,1.66
10,FYCDQCGAFFTQKGNLLRHIKL,-0.0152
11,FTCNICGAGFTQKGNLLRHIKL,-0.608
12,FHCNVCGAQFTQKGNLLRHIKL,-0.913
13,FQCEICGARFTQKGNLLRHIKL,-0.795
14,FRCPVCGAPFTQKGNLLRHIKL,0.432
15,FMCNQCGRNFTQKGNLLRHIKL,0.0499
16,FWCPICGRRFTQKGNLLRHIKL,-1.03
17,FECPVCGAAFTQKGNLLRHIKL,-1.24
18,FFCEVCGALFTQKGNLLRHIKL,-0.156
19,FQCDQCGAIFTQKGNLLRHIKL,-1.81
20,FHCEICGAIFTQKGNLLRHIKL,-0.486
21,LNCPICGFECTQKGNLLRHIKL,-0.0958
22,FRCEICGAPFTQKGNLLRHIKL,-0.7
23,LMCPICGFSCTQKGNLLRHIKL,0.81
24,FICEICGADFTQKGNLLRHIKL,-1.24
25,FHCDQCGALFTQKGNLLRHIKL,-0.815

row,Sequence,log2 fold change of degron read counts
1,LLCNQCGFFCTQKGNLLRHIKL,1.86
2,LLCPICGFLCTQKGNLLRHIKL,2.12
3,FTCPVCGADFTQKGNLLRHIKL,-0.64
4,FICEQCGASFTQKGNLLRHIKL,-1.71
5,FTCEICGRFFTQKGNLLRHIKL,-1.05
6,LHCPICGFYCTQKGNLLRHIKL,1.5
7,FVCEICGRRFTQKGNLLRHIKL,-0.967
8,FTCNQCGHIFTQKGNLLRHIKL,-0.51
9,FECEQCGAVFTQKGNLLRHIKL,-3.07
10,FGCNVCGAAFTQKGNLLRHIKL,-0.112
11,FMCEVCGAWFTQKGNLLRHIKL,-0.233
12,FICPQCGAQFTQKGNLLRHIKL,-0.904
13,FHCNICGAKFTQKGNLLRHIKL,-0.583
14,FGCEQCGACFTQKGNLLRHIKL,-1.87
15,LFCNQCGFACTQKGNLLRHIKL,1.43
16,FTCEICGANFTQKGNLLRHIKL,-0.754
17,FVCEICGAHFTQKGNLLRHIKL,-1.69
18,FQCEVCGANFTQKGNLLRHIKL,-2.08
19,FTCPICGRWFTQKGNLLRHIKL,0.722
20,FWCDVCGAFFTQKGNLLRHIKL,0.639
21,FFCSVCGHNFTQKGNLLRHIKL,0.134
22,FSCEVCGAAFTQKGNLLRHIKL,-1.89
23,FYCEVCGAVFTQKGNLLRHIKL,-0.296
24,FCCPQCGAEFTQKGNLLRHIKL,-1.87
25,LDCEICGFGCTQKGNLLRHIKL,0.375
